We go through 1 molecule from US20220296690A1 (Pieris, published 2022).

This assay deals with T1, Recombinant human CTLA-4 (human, UniProt P16410 36-161, limits assumed).
T1 sequence (looked up): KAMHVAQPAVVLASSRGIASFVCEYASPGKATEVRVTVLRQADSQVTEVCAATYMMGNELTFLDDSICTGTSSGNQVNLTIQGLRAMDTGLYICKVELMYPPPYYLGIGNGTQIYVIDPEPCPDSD
The experiment in a line: ELISA; recombinant human CTLA-4 coated, T cell culture supernatant added, detected with rabbit anti-NGAL polyclonal antibody and goat anti-rabbit IgG-HRP. Here is the method: FIG. 5: Detection of functional T-cell secreted Fc fusion of a CTLA-4 antagonist by ELISA. The supernatant of human peripheral blood T cells, mock-transduced or transduced with pSIN-(NFAT)6-αCTLA-4-Fc and cultured under activatory conditions (cf. Example 3 and FIG. 4) was analyzed for the presence of the functionally active Fc fusion of the CTLA-4 antagonist SEQ ID NO: 29 by ELISA. Recombinant human CTLA-4 was coated on an ELISA Plate as described in Example 3, and culture supernatants of transduced and mock-transduced T cells were added. Plate-bound SEQ ID NO: 29 was detected by primary staining with an anti-NGAL polyclonal rabbit antibody, secondary staining using goat anti rabbit IgG-HRP and addition of a chromogenic HRP substrate as described in Example 3.
Supernatants were analyzed for the presence of functionally active Anticalin-based CTLA-4 antagonist by ELISA as described in the following: Recombinant human CTLA-4 at a concentration of 5 μg/mL in PBS was added to each well of a 384 well ELISA plate and incubated over night at 4° C. […] Subsequently, rabbit anti-NGAL polyclonal antibody at a concentration of 1 μg/mL in PBS/0.1% (w/v) Tween20/2% (w/v) BSA was added, and bound antibody was detected using goat anti-rabbit IgG-HRP in a dilution of 1:5,000 in PBS/0.1% (w/v) Tween20/2% (w/v) BSA. […]
In general terms: An ELISA detects its analyte on a solid surface through an enzyme-linked reagent.

B1: Fc fusion of the Anticalin-based CTLA-4 antagonist, mature processed secreted form (SEQ ID NO: 29) (Fc fusion)
chain: QDSTSDLIPAPPLSKVPLQQNFQDNQFQGKWYVVGLAGNRILRQDQHPMLMYATIYELKEDKSYQVTSVISSHKKCLYPIATFVPGSQPGEFTLGNIKSYGDKVSYLVRVVSTNYNQHAMVFFKHADTNYESFSITLYGRTKELTSELKENFIRFSKSLGLPENHIVFPVPIDQCIDGSAWSHPQFEKDPA[human IgG1 Fc with C220P (EU numbers) omitted]
notes: Fusion of the Anticalin-based CTLA-4 antagonist to the Fc fragment of a human IgG1 antibody; also called αCTLA-4-Fc
As to B1, the binding result is “binds”.
